According to the supplement of paper PMC8728848:
Some of the results follow.

Key:
Assay in all cases: glycan array binding signal (z-score within array); higher = stronger binding
Details in all cases: glycan notation: IUPAC condensed, linker removed
[1] = target: Gal(b1-2)Gal
Outline: (§1)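 Glycan array data were curated from 3228 arrays in the Consortium for Functional Glycomics database and kept only where the protein sequence was available. Glycan names were converted to IUPAC-condensed notation, and columns mapping to the same glycan were averaged. The binding signal is a within-array Z-score, averaged across arrays of the same protein sequence at different concentrations or buffers and across linkers. Negative Z-scores can be read as non-binding.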

[2] = target: Gal(b1-3)Gal
Outline: as §1

[3] = target: Gal(b1-3)Gal(b1-4)GlcNAc
Outline: as §1

[4] = target: Gal(b1-3)GalNAc
Outline: as §1

[5] = target: Gal(b1-3)GalNAc(b1-3)Gal(a1-4)Gal(b1-4)Glc
Outline: as §1

[6] = target: Gal(b1-3)GalNAc(b1-4)Gal(b1-4)Glc
Outline: as §1

[7] = target: Gal(b1-3)GalNAc(b1-4)[Neu5Ac(a2-3)]Gal(b1-4)Glc
Outline: as §1

[8] = target: Gal(b1-3)GlcNAc
Outline: as §1

[9] = target: Gal(b1-3)GlcNAc(b1-2)Man(a1-3)[Gal(b1-3)GlcNAc(b1-2)Man(a1-6)]Man(b1-4)GlcNAc(b1-4)GlcNAc
Outline: as §1

[10] = target: Gal(b1-3)GlcNAc(b1-3)Gal(b1-3)GlcNAc
Outline: as §1

[11] = target: Gal(b1-3)GlcNAc(b1-3)Gal(b1-4)Glc
Outline: as §1

[12] = target: Gal(b1-3)GlcNAc(b1-3)Gal(b1-4)GlcNAc
Outline: as §1

[13] = target: Gal(b1-3)[Fuc(a1-4)]GlcNAc
Outline: as §1

[14] = target: Gal(b1-3)[Fuc(a1-4)]GlcNAc(b1-3)Gal(b1-3)[Fuc(a1-4)]GlcNAc
Outline: as §1

[15] = target: Gal(b1-3)[Fuc(a1-4)]GlcNAc(b1-3)Gal(b1-4)GlcNAc
Outline: as §1

[16] = target: Gal(b1-3)[Fuc(a1-4)]GlcNAc(b1-3)Gal(b1-4)[Fuc(a1-3)]GlcNAc
Outline: as §1

[17] = target: Gal(b1-3)[GlcNAc(b1-6)]GalNAc
Outline: as §1

[18] = target: Gal(b1-3)[Neu5Ac(a2-6)]GalNAc
Outline: as §1

[19] = target: Gal(b1-3)[Neu5Ac(a2-6)]GlcNAc(b1-6)Gal(b1-4)Glc
Outline: as §1

[20] = target: Gal(b1-3)[Neu5Ac(b2-6)]GalNAc
Outline: as §1

[21] = target: Gal(b1-4)GalNAc(a1-3)[Fuc(a1-2)]Gal(b1-4)GlcNAc
Outline: as §1

[22] = target: Gal(b1-4)GalNAc(b1-3)[Fuc(a1-2)]Gal(b1-4)GlcNAc
Outline: as §1

[23] = target: Gal(b1-4)Glc
Outline: as §1

[24] = target: Gal(b1-4)Glc6S
Outline: as §1

[25] = target: Gal(b1-4)GlcNAc
Outline: as §1

[26] = target: Gal(b1-4)GlcNAc(a1-6)Gal(b1-4)GlcNAc
Outline: as §1

[27] = target: Gal(b1-4)GlcNAc(b1-2)Man(a1-3)[Gal(b1-4)GlcNAc(b1-2)Man(a1-6)]Man(b1-4)GlcNAc(b1-4)GlcNAc
Outline: as §1

[28] = target: Gal(b1-4)GlcNAc(b1-3)Gal(b1-3)GlcNAc
Outline: as §1

[29] = target: Gal(b1-4)GlcNAc(b1-3)Gal(b1-4)Glc
Outline: as §1

[30] = target: Gal(b1-4)GlcNAc(b1-3)Gal(b1-4)GlcNAc
Outline: as §1

[31] = target: Gal(b1-4)GlcNAc(b1-3)Gal(b1-4)GlcNAc(b1-3)Gal(b1-4)GlcNAc
Outline: as §1

[32] = target: Gal(b1-4)GlcNAc(b1-3)Gal(b1-4)[Fuc(a1-3)]GlcNAc(b1-3)Gal(b1-4)[Fuc(a1-3)]GlcNAc
Outline: as §1

[33] = target: Gal(b1-4)GlcNAc(b1-3)GalNAc
Outline: as §1

[34] = target: Gal(b1-4)GlcNAc(b1-3)[Gal(b1-4)GlcNAc(b1-6)]Gal(b1-4)GlcNAc
Outline: as §1

[35] = target: Gal(b1-4)GlcNAc(b1-3)[GlcNAc(b1-6)]Gal(b1-4)GlcNAc
Outline: as §1

[36] = target: Gal(b1-4)GlcNAc(b1-6)Gal(b1-4)GlcNAc
Outline: as §1

[37] = target: Gal(b1-4)GlcNAc(b1-6)Gal(b1-4)GlcNAc(b1-6)GalNAc
Outline: as §1

[38] = target: Gal(b1-4)GlcNAc(b1-6)GalNAc
Outline: as §1

[39] = target: Gal(b1-4)GlcNAc(b1-6)[Gal(b1-3)]GalNAc
Outline: as §1

[40] = target: Gal3S(b1-3)GalNAc
Outline: as §1

[41] = target: Gal3S(b1-3)GlcNAc
Outline: as §1

[42] = target: Gal3S(b1-3)[Fuc(a1-4)]GlcNAc
Outline: as §1

[43] = target: Gal3S(b1-4)Glc
Outline: as §1

[44] = target: Gal3S(b1-4)Glc6S
Outline: as §1

[45] = target: Gal3S(b1-4)GlcNAc
Outline: as §1

[46] = target: Gal3S(b1-4)GlcNAc6S
Outline: as §1

[47] = target: Gal3S(b1-4)[Fuc(a1-3)]Glc
Outline: as §1

[48] = target: Gal3S4S(b1-4)GlcNAc
Outline: as §1

[49] = target: Gal3S6S(b1-4)GlcNAc
Outline: as §1

[50] = target: Gal3S6S(b1-4)GlcNAc6S
Outline: as §1

[51] = target: Gal4S(b1-4)GlcNAc
Outline: as §1

[52] = target: Gal4S6S(b1-4)GlcNAc
Outline: as §1

[53] = target: Gal6S(b1-4)Glc
Outline: as §1

[54] = target: Gal6S(b1-4)Glc6S
Outline: as §1

[55] = target: Gal6S(b1-4)GlcNAc
Outline: as §1

[56] = target: Gal6S(b1-4)GlcNAc6S
Outline: as §1

[57] = target: GalNAc(a1-3)Gal
Outline: as §1

[58] = target: GalNAc(a1-3)GalNAc
Outline: as §1

[59] = target: GalNAc(b1-3)Gal
Outline: as §1

[60] = target: GalNAc(b1-3)Gal(a1-4)Gal(b1-4)GlcNAc
Outline: as §1

B1: Surfactant Protein D (rat); Neck + Carbohydrate Recognition Domain (NCRD) (Rattus norvegicus) (protein)
chain: MLLFLLSALVLLTQPLGYLEAEMKTYSHRTMPSACTLVMCSSVESGLPGRDGRDGREGPRGEKGDPGLPGAAGQAGMPGQAGPVGPKGDNGSVGEPGPKGDTGPSGPPGPPGVPGPAGREGALGKQGNIGPQGKPGPKGEAGPKGEVGAPGMQGSAGARGAGPKGERGVPGERGVPGNTGAAGSAGAMGPQGSPGARGPPGLKGDKGIPGDKGAKGESGLPDVASLRQQVEALQGQVQHLQAAFSQYKKVELFPNGQSVGEKIFKTAGFVKPFTEAQLLCTQAGGQLASPRSAAENAALQQLVVAKNEAAFLSMTDSKTEGKFTYPTGESLVYSNWAPGEPNDDGGSEDCVEIFTNGKWNDRACGEKRLVVCEF
In the case of B1, the “glycan array binding signal (z-score)” value [1] is reported as -0.214, the “glycan array binding signal (z-score)” value [2] is reported as -0.117 and the “glycan array binding signal (z-score)” value [3] is reported as 0.172. For the same binder, the “glycan array binding signal (z-score)” value [4] was -0.181, the “glycan array binding signal (z-score)” value [5] was -0.248 and the “glycan array binding signal (z-score)” value [6] was -0.163. The “glycan array binding signal (z-score)” value [7] was -0.068, the “glycan array binding signal (z-score)” value [8] was -0.178 and the “glycan array binding signal (z-score)” value [9] was -0.211. For the same binder, the “glycan array binding signal (z-score)” value [10] was -0.242, the “glycan array binding signal (z-score)” value [11] was -0.194 and the “glycan array binding signal (z-score)” value [12] was -0.156. For the same binder, the “glycan array binding signal (z-score)” value [13] was -0.14, the “glycan array binding signal (z-score)” value [14] was -0.062 and the “glycan array binding signal (z-score)” value [15] was -0.11. The “glycan array binding signal (z-score)” value [16] was -0.187, the “glycan array binding signal (z-score)” value [17] was -0.164 and the “glycan array binding signal (z-score)” value [18] was -0.242. The “glycan array binding signal (z-score)” value [19] was -0.22, the “glycan array binding signal (z-score)” value [20] was -0.253 and the “glycan array binding signal (z-score)” value [21] was -0.22. For the same binder, the “glycan array binding signal (z-score)” value [22] was -0.02, the “glycan array binding signal (z-score)” value [23] was -0.236 and the “glycan array binding signal (z-score)” value [24] was -0.209. For the same binder, the “glycan array binding signal (z-score)” value [25] was 0.481, the “glycan array binding signal (z-score)” value [26] was -0.248 and the “glycan array binding signal (z-score)” value [27] was -0.222. For the same binder, the “glycan array binding signal (z-score)” value [28] was -0.189, the “glycan array binding signal (z-score)” value [29] was -0.078 and the “glycan array binding signal (z-score)” value [30] was -0.126. The “glycan array binding signal (z-score)” value [31] was -0.187, the “glycan array binding signal (z-score)” value [32] was -0.196 and the “glycan array binding signal (z-score)” value [33] was -0.199. The “glycan array binding signal (z-score)” value [34] was -0.165, the “glycan array binding signal (z-score)” value [35] was -0.149 and the “glycan array binding signal (z-score)” value [36] was -0.238. For the same binder, the “glycan array binding signal (z-score)” value [37] was -0.183, the “glycan array binding signal (z-score)” value [38] was -0.202 and the “glycan array binding signal (z-score)” value [39] was -0.232. The “glycan array binding signal (z-score)” value [40] was 0.086, the “glycan array binding signal (z-score)” value [41] was 0.062 and the “glycan array binding signal (z-score)” value [42] was 0.133. For the same binder, the “glycan array binding signal (z-score)” value [43] was -0.229, the “glycan array binding signal (z-score)” value [44] was 0.086 and the “glycan array binding signal (z-score)” value [45] was -0.109. For the same binder, the “glycan array binding signal (z-score)” value [46] was 0.012, the “glycan array binding signal (z-score)” value [47] was -0.007 and the “glycan array binding signal (z-score)” value [48] was -0.238. The “glycan array binding signal (z-score)” value [49] was 0.163, the “glycan array binding signal (z-score)” value [50] was 0.116 and the “glycan array binding signal (z-score)” value [51] was -0.243. The “glycan array binding signal (z-score)” value [52] was -0.173, the “glycan array binding signal (z-score)” value [53] was 0.065 and the “glycan array binding signal (z-score)” value [54] was 0.373. The “glycan array binding signal (z-score)” value [55] was 0.143, the “glycan array binding signal (z-score)” value [56] was -0.005 and the “glycan array binding signal (z-score)” value [57] was -0.233. The “glycan array binding signal (z-score)” value [58] was -0.169, the “glycan array binding signal (z-score)” value [59] was -0.184 and the “glycan array binding signal (z-score)” value [60] was -0.079.
